Our source for the binding signal values is publication PMC7819943, “Rice protein-binding microarrays: a tool to detect cis-acting elements near promoter regions in rice”.

This is one part of the list.

In the test the target is T1, OsWOX13 (Oryza sativa, UniProt Q5QMM3 1-267).
T1 sequence: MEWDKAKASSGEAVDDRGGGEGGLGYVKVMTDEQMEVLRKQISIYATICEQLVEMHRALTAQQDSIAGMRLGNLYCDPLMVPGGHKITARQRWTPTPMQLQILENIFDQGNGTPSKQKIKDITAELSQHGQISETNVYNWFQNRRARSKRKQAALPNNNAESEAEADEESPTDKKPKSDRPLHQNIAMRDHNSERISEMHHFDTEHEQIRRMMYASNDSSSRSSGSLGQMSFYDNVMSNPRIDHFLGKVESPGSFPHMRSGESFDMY
As to the kind of experiment: protein-binding microarray (RPBM); PBS, 2% BSA, 51.3 ng/ul salmon testes DNA, 50 uM zinc acetate, 200 nM TF, 25 C, 1 h; high values mean tight binding. To be noted: protein: recombinant; tags: N-terminal polyhistidine and DsRed monomer fusion (pET32a); label: CyDye5-dUTP incorporated in the synthesized complementary strand; 3' TTTTT single-stranded linker to array surface; dsDNA, one strand shown. In outline: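 Polyhistidine-tagged DsRed fusions of transcription factors, joined at the N-terminus, were expressed in E. coli BL21-CodonPlus and isolated on Ni–NTA. They were incubated at 200 nM for 1 h at 25 °C on a custom Agilent array, double-stranded and BSA-blocked, in PBS with 2% BSA, salmon testes DNA and 50 µM zinc acetate. The binding signal is per-feature fluorescence intensity (arbitrary units) read on an Axon 4000B scanner after washing.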
With “TCCTATCAATCAACGTCGTCGACGTGGAGCAGCCGCCGGTCGGAGTCACCTAGTGCAG”, the binding signal is 35700 fluorescence intensity (a.u.).
For “AGAGAATTGAATTAATCCGTGTGATATATCACTAAAATTCCGGAGTCACCTAGTGCAG”, the binding signal was 5900 fluorescence intensity (a.u.).
On to “TACTCAAATCACGAATGACAGATCAACAGAAAGGAAATGTCGGAGTCACCTAGTGCAG”, for which the binding signal is 5600 fluorescence intensity (a.u.).
On to “AATATTTTGGTAATTTGAATAGTACTTGTGTTTGATTTCGCGGAGTCACCTAGTGCAG”, for which the binding signal is 3990 fluorescence intensity (a.u.).
Take “CATTCAAATTGAATGTAGTTTCAATTTATTTATAATAGCTCGGAGTCACCTAGTGCAG”: the binding signal was 19800 fluorescence intensity (a.u.).
As for “TTCCAAAATAAATCAACTTCTAGATTTTAAATTTATCTCACGGAGTCACCTAGTGCAG”, the binding signal is 3210 fluorescence intensity (a.u.).
In the case of “AACTTTAAATTTCTTCTGTAATAGATAAAGCATCTAAACCCGGAGTCACCTAGTGCAG”, the binding signal is 5700 fluorescence intensity (a.u.).
In the case of “TGCGCCTCAACAACTGAACTGATTGAGACAGTAGATGAAACGGAGTCACCTAGTGCAG”, the binding signal is 4310 fluorescence intensity (a.u.).
Turning to “ATGGATTGATAAGAACCGAATCACACCATTAAGAGGAGAGCGGAGTCACCTAGTGCAG”, the binding signal is 31500 fluorescence intensity (a.u.).
As to “ATTTGTTTGATTGTATATCCGGAAGACTGGTCCGGTATATCGGAGTCACCTAGTGCAG”, the binding signal is 15500 fluorescence intensity (a.u.).
In the case of “CTAATTACATTCCTAATTACATTCCCTTCACGCGCTCTGCCGGAGTCACCTAGTGCAG” it was 41200 fluorescence intensity (a.u.); in that of “TGGGAGTATAAATCATCAGGACAATCAACCATAGCATCCACGGAGTCACCTAGTGCAG”, 4210 fluorescence intensity (a.u.); in that of “CAAATCATGGAGCAATTAGACTTAAAAGATTCGTATCGCACGGAGTCACCTAGTGCAG”, 10000 fluorescence intensity (a.u.).
Take “GTAATTAACAACCATTTTAAAGTTGAAAGATAATAAAAGTCGGAGTCACCTAGTGCAG”: the binding signal is 4420 fluorescence intensity (a.u.).
In the case of “ATGACATCAATCTGAATAGCCCTAAATCAGGCTGGCCTGGCGGAGTCACCTAGTGCAG” it was 6770 fluorescence intensity (a.u.); in that of “TGTGATTAAATGATTCCTCCAGTGCTATATGCCTATATAACGGAGTCACCTAGTGCAG”, 17500 fluorescence intensity (a.u.).
In the case of “TCTCTGTGATTAAGCGGCGTCTTCCAGGACTCAAGCAGCGCGGAGTCACCTAGTGCAG” it was 3560 fluorescence intensity (a.u.); in that of “ACTTAAATTTTACTCAGTTAGCGCTTTTAGGCTTGGATTTCGGAGTCACCTAGTGCAG”, 7750 fluorescence intensity (a.u.); in that of “TGGTTATTATATTGATTATAGATAATTTGAAGTTAGTAGTCGGAGTCACCTAGTGCAG”, 31500 fluorescence intensity (a.u.).
In the case of “AAGTTATTATACTAAATTACACCCACCTACTAAATTGTTGCGGAGTCACCTAGTGCAG” it was 3580 fluorescence intensity (a.u.); in that of “CCTCTCTGATTCTCTGATTGATTCTGCAACGCATCACACGCGGAGTCACCTAGTGCAG”, 22900 fluorescence intensity (a.u.); in that of “GATAAAATTTATAACGAAACTGATTATCCATATATTATAACGGAGTCACCTAGTGCAG”, 6060 fluorescence intensity (a.u.).
With “TTTCAATTGTACATGAATGACAGCATTTACAGTTTTGAATCGGAGTCACCTAGTGCAG”, the binding signal is 4290 fluorescence intensity (a.u.).
For the sequence “TATTGATTGGATCACCACGTATAGTTAGCAAATCTCTAAACGGAGTCACCTAGTGCAG”, the binding signal is 36200 fluorescence intensity (a.u.).
Regarding “ATGGGTTCTGATTGAGGGATGGAATCATCGTATGTTCAACCGGAGTCACCTAGTGCAG”, the binding signal was 30700 fluorescence intensity (a.u.).
For the sequence “CCGATGTTTGATTGTTCGTTTTATTTGAAAGCCTTTTATGCGGAGTCACCTAGTGCAG”, the binding signal is 20800 fluorescence intensity (a.u.).
As for “AAAGGTAGATAATTACTGACAATAGTAGGGTGTGTCACTACGGAGTCACCTAGTGCAG”, the binding signal was 4470 fluorescence intensity (a.u.).
Take “ATATTAATTTAAAGTATTAAATATAGACTACTTACAAAACCGGAGTCACCTAGTGCAG”: the binding signal is 13700 fluorescence intensity (a.u.).
To “ATGATTTGGGGAATGACACTGAAGTATCCATCATTTTGCCCGGAGTCACCTAGTGCAG” belongs 10800 fluorescence intensity (a.u.); to “AATAATATAAATGACGGTTTTCCTAATAAACCGACACTTACGGAGTCACCTAGTGCAG”, 3660 fluorescence intensity (a.u.).
Regarding “GTGATAATTTGATACATAGTATTGTGGAATTTACTTTAAACGGAGTCACCTAGTGCAG”, the binding signal is 15700 fluorescence intensity (a.u.).
On to “TGTTAATCTTGCTGATTTTGTTATTGATTTTAATGCTATGCGGAGTCACCTAGTGCAG”, for which the binding signal was 17300 fluorescence intensity (a.u.).
To “GGTACTTGACAGGACCGTCGACAGAAGGTTCGTCAGCTTACGGAGTCACCTAGTGCAG” belongs 6100 fluorescence intensity (a.u.); to “TGATAACAGATAAATCCCACTGTTGATAGCTGAAAGCTACCGGAGTCACCTAGTGCAG”, 14500 fluorescence intensity (a.u.).
With “CAGACCAGCAGATTGATACCAACAAATTTATTGAGCAATGCGGAGTCACCTAGTGCAG”, the binding signal is 23200 fluorescence intensity (a.u.).
Regarding “TAAAATAGAAGCAAATTAGAATGCCGCGTTTGGATTGGATCGGAGTCACCTAGTGCAG”, the binding signal is 6090 fluorescence intensity (a.u.).
For “ATCACACCCTAAATTGACTGTATTTGTGCTGAATTTTACACGGAGTCACCTAGTGCAG”, the binding signal was 12300 fluorescence intensity (a.u.).
For the sequence “CTCTCAATTATAGGAAAACTAATTACTGACTACTTTCTCCCGGAGTCACCTAGTGCAG”, the binding signal is 25000 fluorescence intensity (a.u.).
Turning to “TTTTCCATCACATCAATCTGTCATACACAACTTTTCAGTCCGGAGTCACCTAGTGCAG”, the binding signal was 12500 fluorescence intensity (a.u.).
“GCACAAATAATTGTAACTCCATTGCCCCTCTGTATCTTCTCGGAGTCACCTAGTGCAG”: the binding signal was 12500 fluorescence intensity (a.u.).
Regarding “AGTTTAATTAAATTTATAGAAAGATAAAGCAATATTTTCACGGAGTCACCTAGTGCAG”, the binding signal is 24400 fluorescence intensity (a.u.).
Consider “CTTCAGATATTAATTTGTGCCTCATGTAGTGTACCCAACACGGAGTCACCTAGTGCAG”, for which the binding signal was 3530 fluorescence intensity (a.u.).
